Experimental data published in PubChem BioAssay AID1347120 (National Center for Advancing Translational Sciences (NCATS), 2019).
About 930 (0.24%) of roughly 390,000 compounds were called active. Inconclusive results, whose numbers are uncertain, are shown with a selection of clear calls. The call rests on the fitted dose curve; in most records, active means well fitted activation curve with a large enough effect; inconclusive means small, poorly fitted or top-dose-only effect; inactive means no such curve, though single readings can be large or run the other way. A potency beside an inconclusive call is a rough fit, not a confirmed value.

test: qHTS for Suppressors of FUS Proteinopathy: Primary screen using FUS-linked yeast assay; further: nearly all actives have a fitted effect of over 55% in size; settings: S. cerevisiae FUS-expressing, OD600, 24 h; Potency: growth rescue; series mostly up to 76.6 µM
In short: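 Cultures pregrown in 2.5% raffinose medium are shifted to minimal medium containing 2% galactose to express toxic FUS. Compounds are tested at several concentrations. After 24hr at 30C, growth is quantified at 600 nm absorbance.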
Potency means the concentration at half of the fitted maximal effect; tags describe the fitted curve by direction and shape.

SMILES | Potency
CC1=C(C(=O)N2CCCCCC2)CC(CC(=O)NC(c2ccccc2)c2ccccc2)C(=O)N1CCC1=CCCCC1 (centres undefined) | inconclusive: 12.6 µM [activator, partial curve]
CCc1ccc(S(=O)(=O)Nc2cccc(-c3ccc(N4CCC(C)CC4)nn3)c2)s1 | inconclusive: 44.7 µM [activator, single point]
CC(C)(C)OC(=O)N1CCC(c2c(C(=O)NCc3ccco3)cnn2-c2ccccc2)CC1 | inconclusive: 35.5 µM [activator, single point]
COc1ccc(NC(=O)N2CCC(c3ccccc3)C2)c(OC)c1 (centres undefined) | inactive
Nc1cc(C(=O)O)ccc1Nc1ccccc1 | inactive
CSc1ncc(Cl)c(C(=O)Nc2ccc(S(=O)(=O)N3CCCC(C)C3)cc2)n1 (centres undefined) | inactive
Cn1c(N)c(C(=O)COC(=O)c2cc(-c3ccco3)nc3ccccc23)c(=O)n(C)c1=O | inconclusive: 31.6 µM [activator, single point]
COc1cc(Cl)c(C)cc1NC(=O)Cn1ncc2c(=O)oc3ccccc3c21 | inactive
CC1(c2nnnn2Cc2ccccc2)CCCCC(=O)N1Cc1cccs1 (centres undefined) | inactive
CCOC(=O)c1c(NC(=O)CN2C(=O)N(C)C3(CCCCC3)C2=O)sc(C(=O)N(C)C)c1C | inconclusive: 5.01 µM [activator, partial curve]
Cc1nnc(N2C(=O)C(O)=C(C(=O)c3ccco3)C2c2cccc3ccccc23)s1 (centres undefined) | inconclusive: 12.6 µM [activator, partial curve, poor fit]
CC(C)C[C@H]1CN([C@@H](Cc2ccc(O)cc2)CN2CCC[C@@H]2CN2C(=S)NC[C@@H]2Cc2ccccc2)C(=S)N1CC1CCCCC1 | inconclusive: 31.6 µM [activator, single point]
Cc1ccc(C(=O)Nc2ccc3c(c2)C(=O)N(C)C3=O)c(C)c1 | inactive
COc1ccc(CCNC(=O)COc2ccc(S(=O)(=O)NC3CCCCC3)cc2Cl)cc1OC | inconclusive: 35.5 µM [activator, single point]
O=C(NCCC(=O)N(Cc1ccco1)Cc1cccs1)c1ccccc1Cl | inconclusive: 10 µM [activator, partial curve, poor fit]
CCN(CC)S(=O)(=O)c1cc(NC(=O)CNc2cccc(S(=O)(=O)N3CCOCC3)c2)ccc1C | inactive
COc1ccc(S(=O)(=O)N2CCN(Cc3ccc4c(c3)OCO4)CC2)cc1F | inconclusive: 25.1 µM [activator, partial curve, poor fit]
CCc1ccccc1NC(=O)CSC1=Nc2ccccc2C2=NC(Cc3ccccc3)C(=O)N12 (centres undefined) | inconclusive: 35.5 µM [activator, single point]
O=C(C[C@H]1C/C=C\C[C@@H](NC(=O)OCC2c3ccccc3-c3ccccc32)C(=O)O[C@@H](c2ccccc2)CNC1=O)N[C@H](CO)Cc1ccccc1 | active: 35.5 µM
O=C(C(=O)N1CCCC1)c1c(-c2ccccc2)[nH]c2ccccc12 | inactive

SMILES | Potency
N#Cc1c(C(F)(F)F)cc(-c2cccs2)nc1SCC(=O)Nc1ccc(F)cc1 | inactive
CN(C)c1ccccc1C(=O)N1CCCC(C(=O)c2ccc3ccccc3c2)C1 (centres undefined) | inconclusive: 31.6 µM [activator, single point]
C[C@H](CO)N1C[C@H](C)[C@@H](CN(C)C(=O)Nc2ccc(C(F)(F)F)cc2)Oc2c(NS(=O)(=O)c3ccc(F)cc3)cccc2C1=O | inconclusive: 31.6 µM [activator, single point]
COc1ccc(CNC(=O)c2ccc3c(c2)N(Cc2ccccc2F)C(=O)c2ccccc2S3(=O)=O)cc1 | inconclusive: 7.94 µM [activator, partial curve]
COC(=O)c1ccc(Nc2c([N+](=O)[O-])ccc3nonc23)cc1 | inactive
Cc1ccc(C)c(CN2C(=O)C(C)Oc3ccc(C)cc32)c1 (centres undefined) | inconclusive: 11.2 µM [activator, single point]
CCCCCCCCN1C(=O)[C@H](CC(=O)NCCCCc2ccccc2)C[C@@]2(C(=O)OC)CCCCC=C12 | inconclusive: 10 µM [activator, partial curve]
S=c1[nH]nc(-c2cc(-c3ccco3)[nH]n2)n1-c1cccc2ccccc12 | inconclusive: 50.1 µM [activator, single point]
Cc1nn(Cc2c(Cl)cccc2Cl)c(C)c1NC(=O)c1cc(C(C)C)on1 | inactive
CC(C)CC1C(=O)N(Cc2cn(CC3CCCCC3)nn2)CCS(=O)(=O)N1Cc1ccc(-c2cccc(CO)c2)cc1 (centres undefined) | inconclusive: 14.1 µM [activator, partial curve, poor fit]
CCN(CC)C(=O)[C@H]1C[C@H](CC(=O)NCc2cccc(C(F)(F)F)c2)C(=O)N2CCc3c([nH]c4ccc(Cl)cc34)[C@]12C | inconclusive: 12.6 µM [activator, partial curve, poor fit]
O=c1c2cc(N3CCOCC3)ccc2[nH]c(=S)n1Cc1ccco1 | inconclusive: 22.4 µM [activator, partial curve, poor fit]
COc1cc(CNCCSc2nnnn2C)cc(OC)c1OC | inactive
CCOc1cc(CNC(=O)c2ccc3c(c2)N(C)C(=O)C2CCCCN32)cc(OCC)c1OCC (centres undefined) | inconclusive: 11.2 µM [activator, partial curve, poor fit]
CSc1ccc(CCNC(=O)c2ccc(CS(=O)(=O)c3ccc(Br)cc3)o2)cc1 | inactive
COc1ccc(S(=O)(=O)N(C)C[C@@H]2OCCCC[C@@H](C)Oc3ccc(NS(=O)(=O)c4cccs4)cc3C(=O)N([C@H](C)CO)C[C@@H]2C)cc1 | inconclusive: 11.2 µM [activator, partial curve, poor fit]
CCC(C)(C)n1nnnc1C(c1cc2ccc(OC)cc2[nH]c1=O)N1CCc2ccccc21 (centres undefined) | inconclusive: 39.8 µM [activator, partial curve, poor fit]
COc1cc(OC)cc(C(=O)Nc2sc3c(c2C(N)=O)CCC3)c1 | inactive
COc1cc(O)ccc1C1CC(=O)Nc2c1c(=O)nc(SCc1ccccc1C)n2C (centres undefined) | inconclusive: 39.8 µM [activator, single point]
